“And” between values parts separate entries of the source, which are not always exact repeats. Identical values can stand only once.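 Following 48 hours of exposure in 96-well plates, responses at five concentrations were used to interpolate endpoints linearly. GI50 marks 50% less growth. TGI: total growth inhibition.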

This assay relates to NCI-H322M lung. Kind of assay: NCI-60 cell line screen, 48 h.
On to `Cc1cccc(Cc2cnc(NC(=O)/C=C/c3ccco3)s2)c1`, for which the GI50 is 0.0651 µM and the TGI was more than 100 µM.
With `CN(C)CCSc1nccc(-c2ccc(-c3ccnc(SCCN(C)C)n3)s2)n1`, the TGI is 26 µM.
As for `Cc1nc(C)c(C(=O)NNC(=O)c2ccccc2)cc1C(=O)NNC(=O)c1ccccc1`, the TGI is more than 100 µM.
As to `COc1cc2cc(Oc3ccc(NC(=O)Nc4cc(C(F)(F)F)cc(C(F)(F)F)c4)cc3)c(C)nc2cc1OCCN1CCCCC1`, the GI50 is 1.67 µM and the TGI was determined as 3.08 µM.
With `CN(C)CC1CCCCCCCCCCC1=O` (stereo unspecified), the GI50 is > 10 µM and 59 µM; the TGI is more than 100 µM.
`S=C1NNC(=S)NN1` displayed a TGI of more than 1 µM.
In turn, `CCCN(CCC)c1c([N+](=O)[O-])cc(C(N)=O)cc1[N+](=O)[O-]` came in with a TGI of more than 100 µM.
With `Nc1cc2ccncc2c2ccccc12`, the GI50 was 16.8 µM and the TGI came out at 94.6 µM.
In the case of `COc1ccc(C(=O)C(CN(C)C)c2ccccc2)cc1` (stereo unspecified), the GI50 was 15.8 µM and the TGI was found to be 32.2 µM.
Take `c1ccc2c(c1)[C@@H]1O[C@@H]1[C@@]13O[C@@]21[C@H]1O[C@H]1c1ccccc13`: the TGI came out at 35.6 µM.
Same read-out and setting: the result for `O=C(O)c1ccccc1/C=C1/Nc2ccccc2C1=O` reads more than 100 µM.
With `O=C(CN1CCN(c2cc3c(cc2F)c(=O)c(C(=O)O)cn3C2CC2)CC1)Nc1ccc(C(=O)/C=C/c2ccccc2)cc1`, the GI50 is 4.04 µM and the TGI is 58.7 µM.
`CCCCCCCC(=O)O[C@H]1[C@H]2[C@@H](CC1(C)C)C(=O)[C@]13O[C@H]1C(=O)[C@]1(CO1)[C@]23C`: the GI50 was 23.3 µM; the TGI is 55.5 µM and 36.3 µM.
Take `O=c1[nH]c(=O)c2c([nH]1)[nH]c1ccccc12`: the TGI is more than 100 µM.
In the case of `Cc1nc(=O)n2c(c1C(=O)Nc1ccc(Cl)cc1)NCCC2`, the TGI was more than 100 µM.
Take `CCOC(=O)C1=C(C)N(c2ccc(Cl)cc2)C2(O)C=CC(=O)C3C(=O)N(c4ccccc4)C(=O)C132` (stereo unspecified): the TGI came out at 6.79 µM.
The molecule `CC1(C)CC(=O)C=C(NC(=O)c2ccccc2)C1` gave a TGI of more than 100 µM.
Consider `COc1ccc(OC)c(/C=C/C(=O)c2ccc(SC)cc2)c1`, for which the GI50 was 16.4 µM and the TGI is 44 µM.
Regarding `CCCCCC(=O)OCC1(CO)C/C(=C/CC(C(C)C)C(C)C)C(=O)O1` (stereo unspecified), the TGI was more than 75 µM.
As to `CCOC(=O)CCC(NC(=O)c1ccc(Nc2nc3cc(N)cc(N)c3nc2-c2ccccc2)cc1)C(=O)OCC` (stereo unspecified), the GI50 is more than 64.8 µM and the TGI was more than 100 µM.
For the molecule `CCCCOc1nc2ccccc2cc1C1CNC(=O)c2ccccc2N1` (stereo unspecified), the GI50 was 4.89 µM and the TGI turned out to be 39.3 µM.
`Cc1cc(N)c2cc(NC(=O)CCCCCCCCC(=O)Nc3ccc4nc(C)cc(N)c4c3)ccc2n1` yielded a TGI of more than 100 µM.
Turning to `COc1cccc(C2N3CCCCC3[C@@H]3c4[nH]c5ccccc5c4CCN23)c1OC` (stereo partly specified), the TGI is 29.1 µM.
In the case of `c1cc[c]([Sn]([O]c2cccc3cccnc23)([c]2ccccc2)[c]2ccccc2)cc1`, the GI50 was 0.0144 µM and the TGI came out at 0.0398 µM.
`CC1CCCc2c(CC3CC(=O)NC(=O)C3)nc(N)nc21` (stereo unspecified) registered a TGI of more than 100 µM.
Still for that read-out and setting: the result for `COC1OC(=O)C(OC)C(OC)C1OC` (stereo unspecified) reads more than 100 µM; that for `Cc1cnc2[nH]c(-c3sccc3C)cc(=O)c2c1`, more than 100 µM.
In the case of `COc1ccc(C2CCc3c(cnc4nc(N)nc(N)c34)C2)cc1` (stereo unspecified), the TGI is more than 100 µM.
As to `COc1ccc2c(c1)/C(=N/OC(C)=O)c1c-2c(Nc2ccc(/C(C)=N/OC(C)=O)cc2)nc2ccccc12`, the GI50 was 42.4 µM and the TGI is more than 100 µM.
`O=C1CSC(c2cc3cc(Br)ccc3nc2Cl)N1c1ccc(F)c(Cl)c1` (stereo unspecified) yielded a TGI of more than 50 µM.
Consider `O=C(Nc1ccc(Oc2cccc(Cl)c2)c(Cl)c1)c1cccnc1`, for which the GI50 was 2.97 µM and the TGI was more than 50 µM.
The corresponding values for `Cn1cc(C2=C(c3cn(C)c4cc(Cl)ccc34)C(=O)NC2=O)c2ccccc21` are 0.282 µM and more than 25 µM.
As to `Cn1ccnc1C(=O)/C=C/c1ccc(CC(=O)Nc2cc(F)c(F)c(F)c2)cc1`, the GI50 was 1.84 µM and the TGI came to 5.89 µM.
Turning to `N#CSc1cc(-c2nc3ccccc3o2)ccc1N`, the GI50 is 23 µM and the TGI came to 81.9 µM.
`O=c1cc(-c2ccccc2)[nH]c2c(F)ccc(F)c12`: the TGI is more than 100 µM.
As for `NS(=O)(=O)c1ccc(NS(=O)(=O)c2ccc(NC(=O)N(c3ccccc3)c3ccccc3)cc2)cc1`, the TGI is more than 100 µM.
Regarding `N#Cc1nc(-c2ccccn2)c(-c2ccccn2)nc1C#N`, the TGI is 7.18 µM.
The same measure, in the same setting: as for `Clc1cc(-c2csc(Cl)c2)cs1`, the figure is more than 100 µM; as for `CCC1C(=O)OCc2c1cc1n(c2=O)Cc2ccccc2-1` (stereo unspecified), more than 100 µM.
On the same count and under the same terms, as for `CC(C)(C)C1=CC(O)(c2c3ccccc3c(C3(O)C=C(C(C)(C)C)C(=O)C(C(C)(C)C)=C3)c3ccccc23)C=C(C(C)(C)C)C1=O`, the figure is more than 100 µM.
Still for that read-out and setting: the result for `N#Cc1c(NC(=S)Nc2ccccc2)sc2c1CCCC2` reads more than 100 µM.
Molecule `COc1ccc(-c2nc3ncccn3c2-c2ccc(S(C)(=O)=O)cc2)cc1` registered a TGI of more than 100 µM.
Regarding `Cc1c(-c2ccnc(N)n2)c2c(n1-c1ccccc1)C(=O)c1ccccc1C2=O`, the GI50 was 16 µM and the TGI is 53.2 µM.
The corresponding values for `CCn1c(-c2nonc2N)nc2c(C#CC(C)(C)O)ncc(OCC3CCNCC3)c21` are more than 17.9 µM and more than 25 µM.
As for `CSC(=N/N=C(\C)c1ccc(S(=O)(=O)N(C)c2ccccc2)cc1)SC`, the TGI was more than 100 µM.
Still for that read-out and setting: as for `Oc1[nH]c2ccccc2c1N=NC(=S)NCc1ccccn1`, the figure is 18.3 µM.
On the same count and under the same terms, as for `CO/C=C(/C(=O)OC)c1ccccc1[C@H]1C[C@@H]1c1ccccc1`, the figure is more than 100 µM.
Same read-out and setting: the result for `NS(=O)(=O)c1ccc(N=Nc2cc3ccccc3c(C(=O)O)c2O)cc1` reads more than 100 µM.
With `COC(=O)[C@@H](C)C[C@H](Cc1ccccc1)NC(=O)c1csc([C@@H](C[C@H](C(C)C)N(C)C(=O)[C@@H](NC(=O)CN(C)C)C2CC2)OC(C)=O)n1`, the GI50 is 0.101 µM and the TGI is more than 16.5 µM.
Take `O=C1CCc2c(sc3ncnc(Nc4cccc(Br)c4)c23)C1`: the TGI came out at 20 µM.
The same measure, in the same setting: the result for `CC(C)C(NCc1c2ccccc2nc2ccccc12)C(=O)O` (stereo unspecified) reads more than 100 µM.
With `CC(=O)c1c2c(cc3c1CCC3)CCC2`, the TGI was more than 100 µM.
On the same count and under the same terms, the result for `CC1=NNC(N)=N/C1=C\C(Sc1ccc(Cl)cc1)c1ccc(Cl)cc1Cl` (stereo unspecified) reads 37.2 µM.
In the case of `CC(C)=CCCC1(C)C=Cc2c(ccc3c2[nH]c2cc(O)c(C)cc23)O1` (stereo unspecified), the GI50 was 6.66 µM and the TGI is 16.1 µM.
As for `C/C(=C\COc1ccc2ccc(=O)oc2c1)CCC(=O)C(C)(C)O`, the TGI was more than 100 µM.
`NC(=O)c1nnc2c(F)cccc2c1N` showed a TGI of more than 100 µM.
`Nc1nc(Cl)cc(NCC2CC(O)(CO)C2)n1` (stereo unspecified) gave a TGI of more than 100 µM.
Same read-out and setting: the result for `Nc1nn2cc(-c3ccccc3)[n+](CC(=O)c3ccccc3)c2s1` reads more than 100 µM; that for `CCOC(=O)N1c2c(c3ccccc3n2C(=O)OCC)C(=O)C(OC)N1C(=O)OCC` (stereo unspecified), more than 100 µM; that for `COc1ccc2c(-c3csc(-c4c[nH]c5ccccc45)n3)c[nH]c2c1`, more than 45.6 µM.
The same measure, in the same setting: as for `COc1cc(OC)cc(-c2nc3ccccc3c(=O)[nH]2)c1`, the figure is more than 100 µM.

Source of the values: PubChem BioAssay (NCI).
